Source: the supplement of paper PMC11417369
This is one part of the list.

System: PfSIP2 AP2 domain 1 (GST-tagged)
Experiment: gcPBM binding intensity (ln(normalized median fluorescence intensity)); higher = stronger DNA binding
How it was run: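 GST-fused DNA-binding domains of P. falciparum, expressed in E. coli, were applied at about 25 μg on average for 1 h to an Agilent 4 × 180k array of primer-extended double-stranded 36-bp intergenic genomic probes and negative controls. Binding intensity is the highest Masliner-normalised natural-log median intensity across replicate spots of either probe orientation, measured with Alexa488 anti-GST antibody and a 488 nm scan.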

| Sequence | gcPBM binding intensity (ln) |
| --- | --- |
| CCTGAAATTTTATTATGTACATATTATAAAATGATT [XGTACX_site1434] | 7.14 |
| TGGCACTAAAAAAATAAACACACAGATTTATATAAT [CACACA_site8386] | 6.8 |
| ATAACCACATAAAATATAATTATATATATATATATA [CACACA_negctrl_site603] | 9.44 |
| ATTCCTCCCATGGAATGTACTCATCAAATAAATAAA [XGTACX_site6543] | 6.86 |
| AATTTGGTGTGTGTAAAAGTATGTGTCTATATTTAT [GTGCAC_negctrl_site166] | 7.11 |
| AGTTATATGATTAATACACACAACAAATGTTTCTTC [CACACA_site1092] | 6.96 |
| ATGTATGTTTATTACTATTTTGAGAATAGACTATAA [CACACA_negctrl_site1366] | 6.87 |
| ACGACTAAATATATGAGTACATATATATATAAATAT [XGTACX_site7522] | 6.9 |
| AAGAATCATATTTAAACACACATACAGATATATATA [CACACA_site5787] | 7.25 |
| TGCAAAAAATTCCACACACACACACCCATATAAATA [CACACA_site1230] | 7.17 |
| TCTAAAATAAATAATGCATGTTAAAAAAAAATATAT [TGCATGCA_site562] | 7.04 |
| CAAATATGTCTTATTCGTACACATATATATATATAT [XGTACX_site8817] | 9.64 |
| TTTCTTTATAAATTAATATTCACAACACAAAATATA [CACACA_negctrl_site450] | 7.01 |
| AAGAAAATAAAAAATAAGCATAATATGATATGATAT [TGCATGCA_negctrl_site196] | 6.78 |
| AAAAATTTGGCATACACACACACACCGACACAGACA [CACACA_site4489] | 7.16 |
| GTGCATATAAGGAAGTGTACGAAAAAAAATATTCCA [XGTACX_site8490] | 9.04 |
| ATTTATTAAATAAAAAGTACAAAATAAGAAAGAAGA [XGTACX_site6935] | 7.43 |
| TTATATATATCTAATTGTACAATATTATGTTCATTA [XGTACX_site7479] | 6.93 |
| ATATATAATATAATATGTACATAAAATTTTAACATT [XGTACX_site5773] | 7.23 |
| AAAAAAACAGTGAATGCACACATTTAAGATCCATAT [CACACA_site3148] | 7.13 |
| TATATTCCCTTAATCACACATAAATAAAAAAAAATA [CACACA_site6094] | 7.12 |
| TATTTCCTTTTTCTTGTTATTCATGAGAAAAAATGA [CACACA_negctrl_site482] | 6.98 |
| GAAATTTTTAATGTGGTGCACAGGAAATTTTTTCTT | 11 |
| AAAATAATAATAGGCACACATATATATATATATATA [CACACA_site2058] | 9.25 |
